This is an account of results in article PMC4336329 (PLoS ONE, 2015).

About 14,000 (4.5%) of roughly 310,000 compounds showed an effect of 50% or more. The effect is printed as a negative number. This is one part of the list.
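Note: peak tail current of the secondary pulse compared with the same well before compound.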

human ether-à-go-go-related gene (hERG) potassium channel, sequence (Q12809 whole entry, looked up): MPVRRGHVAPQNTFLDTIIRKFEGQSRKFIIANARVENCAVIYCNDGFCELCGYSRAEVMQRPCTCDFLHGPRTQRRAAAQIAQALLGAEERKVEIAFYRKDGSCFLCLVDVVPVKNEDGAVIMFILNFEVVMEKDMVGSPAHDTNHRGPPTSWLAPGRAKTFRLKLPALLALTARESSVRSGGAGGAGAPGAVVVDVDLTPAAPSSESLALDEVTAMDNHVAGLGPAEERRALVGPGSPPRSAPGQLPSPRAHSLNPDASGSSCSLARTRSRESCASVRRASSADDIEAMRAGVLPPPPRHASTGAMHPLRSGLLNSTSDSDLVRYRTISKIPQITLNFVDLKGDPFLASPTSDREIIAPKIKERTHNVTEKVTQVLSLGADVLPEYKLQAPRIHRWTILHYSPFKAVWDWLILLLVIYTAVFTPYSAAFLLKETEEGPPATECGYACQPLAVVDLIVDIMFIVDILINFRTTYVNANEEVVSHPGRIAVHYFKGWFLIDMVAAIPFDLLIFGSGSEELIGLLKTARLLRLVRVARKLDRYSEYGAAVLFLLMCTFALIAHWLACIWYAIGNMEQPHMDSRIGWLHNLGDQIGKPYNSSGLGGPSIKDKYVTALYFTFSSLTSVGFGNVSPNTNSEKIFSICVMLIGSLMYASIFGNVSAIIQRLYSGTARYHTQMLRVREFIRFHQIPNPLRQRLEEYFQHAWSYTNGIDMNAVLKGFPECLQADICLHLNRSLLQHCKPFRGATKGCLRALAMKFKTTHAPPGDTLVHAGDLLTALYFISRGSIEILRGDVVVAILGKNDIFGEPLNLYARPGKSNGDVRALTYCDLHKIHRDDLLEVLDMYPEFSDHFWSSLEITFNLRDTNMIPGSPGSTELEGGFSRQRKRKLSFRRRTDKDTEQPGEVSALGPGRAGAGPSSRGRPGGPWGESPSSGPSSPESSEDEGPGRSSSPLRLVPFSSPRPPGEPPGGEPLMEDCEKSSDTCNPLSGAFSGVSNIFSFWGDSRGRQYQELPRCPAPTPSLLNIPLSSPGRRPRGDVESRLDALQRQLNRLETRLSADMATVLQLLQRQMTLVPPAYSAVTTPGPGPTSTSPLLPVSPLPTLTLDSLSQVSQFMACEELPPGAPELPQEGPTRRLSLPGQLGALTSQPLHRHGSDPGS

The assay concerns the target human ether-à-go-go-related gene (hERG) potassium channel (human, UniProt Q12809). The experiment in a line: primary screen, population patch clamp on CHO cells stably expressing hERG.
In the case of `Cc1cccc2c1NC1(CCCC1)CC2C.Cl` (centres unmarked), the “hERG current change (%, negative = inhibition) at 10uM” value turned out to be 16.9%. The same measure for `Cl.O=C(CSc1ncc(-c2ccc(F)cc2)[nH]1)N1CCCCC1`: -21.5%; for `CSc1ncccc1C(=O)N1CCCC(CCC(=O)NCc2ccccc2F)C1` (centres unmarked): 6.52%; for `CCC(OCC(O)CN1CCCCC1)c1ccccc1.Cl` (centres unmarked): 16.9%.

Take `O=C(Nc1ccc2nc(-c3cccnc3)[nH]c2c1)c1ccccc1F`: the “hERG current change (%, negative = inhibition) at 10uM” value is on record as -2.82%.

Take `Cc1nnsc1-c1nnc(SCC(=O)c2ccccc2)n1C1CC1`: the “hERG current change (%, negative = inhibition) at 10uM” value came to 0.696%.

On to `CN(C)c1ccc(C2OC(=O)C3(CCCC3)C(=O)C2(C)C)cc1` (centres unmarked), for which the “hERG current change (%, negative = inhibition) at 10uM” value is reported as 0.307%. The figure for `CO/N=C/NC(=O)NOCc1c(Cl)cccc1Cl` is 13.4%; for `COC(=O)c1c2[n+](cc3cc(OC)c(OC)cc13)CCc1cc(OC)c(OC)cc1-2.[O-][Cl+3]([O-])([O-])[O-]` it is 15.6%; for `CCN(CC)CC.COc1ccc(-n2c(=S)[nH]c3c(sc(=S)n3-c3ccccc3)c2=O)c(OC)c1` it is 25.7%. The figure for `Cc1cccc(C)c1NC(=O)N1CCN(C2CCCCC2)CC1` is 18.5%.

For `CC(C)Sc1nc2sc(-c3ccccc3)cc2c(=O)n1N`, the “hERG current change (%, negative = inhibition) at 10uM” value is recorded as 7.81%. `COc1ccc(C(C(=O)NC(C)(C)C)N(C(=O)CNC(=O)c2cccs2)c2cccnc2)cc1OC` (centres unmarked): the “hERG current change (%, negative = inhibition) at 10uM” value came out at 18.3%. Turning to `CCOc1ccc(NC(=S)NCc2ccco2)cc1`, the “hERG current change (%, negative = inhibition) at 10uM” value was 11.6%. The same measure for `COc1cc(C(=O)NC(C(=O)Nc2cccc(C(C)=O)c2)C(C)C)cc(OC)c1OC` (centres unmarked): -4.13%; for `CCOc1ccc(Nc2oc(-c3ccc(Cl)cc3)nc2C#N)cc1`: 9.08%. The same measure for `Cc1ccc(C(=O)Nc2cccc3cccnc23)cc1C`: 12.6%; for `Cc1ccc(C(=O)N/N=c2\sc3ccccc3n2C)cc1`: -33.2%; for `CCN(CC)C(=O)C1=C(C)NC(=S)NC1c1cn(-c2ccccc2)nc1-c1ccc(Cl)cc1` (centres unmarked): -23.6%.

For the molecule `COc1ccc2[nH]c3nc(SCC(=O)NC4CC4)nnc3c2c1`, the “hERG current change (%, negative = inhibition) at 10uM” value worked out at 1.09%.

Take `CC(Sc1ccccc1)C(=O)N/N=C/c1cccnc1` (centres unmarked): the “hERG current change (%, negative = inhibition) at 10uM” value is listed as 1.43%. Consider `CCOC(=O)C1C(=O)C=C(Nc2ccccc2F)CC1c1ccccc1` (centres unmarked), for which the “hERG current change (%, negative = inhibition) at 10uM” value is recorded as -21.5%. The figure for `Cn1c2ccccc2c2cc([N+](=O)[O-])ccc21` is -7.7%; for `C/C(=N\Nc1nc(C)cc(-c2ccccc2)n1)c1cccc(N)c1` it is 15.6%.

For `COc1ccc2ccccc2c1CNCCCN1CCOCC1.Cl`, the “hERG current change (%, negative = inhibition) at 10uM” value is -8.6%. The same measure for `C#CCOCCOCCOCCNc1nc(N2CCN(C(=O)[C@H]([C@@H](C)CC)n3cc([C@@H](N)CC(C)C)nn3)CC2)nc(N2CCN(C(=O)[C@H](CCCCN)n3cc([C@@H](N)CC(C)C)nn3)CC2)n1.Cl`: -10.1%; for `C/C(=N\NC(=O)CO/N=C(\C)c1cccs1)c1ccc(N)cc1`: -5.57%. The figure for `COc1ccc(C2N3CC4(C)CN2CC(C)(C3)C4)cc1OC` (centres unmarked) is 5.36%. In the case of `CCc1ccc(NC(=O)COC(=O)c2cccs2)cc1`, the “hERG current change (%, negative = inhibition) at 10uM” value is 4.77%. The same measure for `Cc1c(Cl)cccc1NC(=S)NCCN1CCOCC1`: 14.9%; for `COC(=O)c1ccc(OCC(=O)NC2CCCCCC2)cc1`: 0.546%. The same measure for `O=S(=O)(c1ccc(F)c(Cl)c1)N1CCN(C/C=C/c2ccccc2)CC1`: 10.2%. The same measure for `COCCNC(=O)CN1CCC(NC(=O)c2ccco2)CC1`: 3.48%; for `O=C(Cc1n[nH]c(=O)[nH]c1=O)N/N=C/c1c(O)ccc2ccccc12`: 27.2%. Turning to `CC(C)CNC(=O)CCCc1c[nH]c2ccccc12.O=C(O)C(=O)O`, the “hERG current change (%, negative = inhibition) at 10uM” value amounted to 7.13%. For the molecule `C=CCn1c(N2CCOCC2)nc2c1c(=O)[nH]c(=O)n2C`, the “hERG current change (%, negative = inhibition) at 10uM” value was 5.9%.

`CC(C)NC(=O)c1cc(-c2cccs2)nc2ccccc12`: the “hERG current change (%, negative = inhibition) at 10uM” value was determined as 9.89%. The figure for `N#CCCn1cc(/C=N/O)c(-c2ccc(-c3ccccc3)cc2)n1` is -4.41%; for `O=C(NCc1csc(-c2ccccc2)n1)c1cc(F)cc2c1OCOC2` it is 14%. The figure for `CCn1nnnc1SCC(=O)Nc1nc(C)c(C)s1` is 4.67%; for `O=C(NNC(=O)C1CCC1)c1ccccc1F` it is 5.71%; for `CCOC(=O)c1c(-n2c(C)cc(/C=C3/C(=O)NC(=O)N(CC)C3=O)c2C)sc2c1CCCC2` it is 2.36%. Consider `COc1ccc(Cl)cc1NC(=O)CCS(=O)(=O)c1cc2c(cc1C)NC(=O)CO2`, for which the “hERG current change (%, negative = inhibition) at 10uM” value is given as -35.3%. The figure for `Cc1cc(S(=O)(=O)N2CCOCC2)c(C)s1` is 9.26%; for `Cc1ccc(Cn2c(CN3CC(C)OC(C)C3)nc3c2c(=O)[nH]c(=O)n3C)cc1` (centres unmarked) it is -20.5%; for `C/C(=N\Nc1ccccc1)c1c(O)n(-c2ccccc2)c(=O)[nH]c1=O` it is 11.7%. As for `COc1ccc2c(c1OC)C(=O)OC2C/C(=N\NC(N)=O)c1ccccc1` (centres unmarked), the “hERG current change (%, negative = inhibition) at 10uM” value is on record as 21.6%.

For `Cc1cc(C)c[n+](-c2[nH]c(=O)sc2/C=N/N=C(\N)[S-])c1`, the “hERG current change (%, negative = inhibition) at 10uM” value is 22%. Take `COc1cccc(OC)c1C(=O)Nc1ccc(CN2CCCCC2)cc1`: the “hERG current change (%, negative = inhibition) at 10uM” value came to 10.6%. The figure for `COc1ccc(-c2csc3nc(C(C)C)oc(=O)c23)cc1OC` is 7.65%; for `CNC(=O)C(=O)Nc1ccc(C)cc1C` it is 8.65%.

Turning to `O=C(NCCO)Nc1ccc2nc(-c3ccco3)c(-c3ccco3)nc2c1`, the “hERG current change (%, negative = inhibition) at 10uM” value stood at 27.2%.

In the case of `O=C(NC(=O)c1ccccc1O)c1ccc2c(c1)CCO2`, the “hERG current change (%, negative = inhibition) at 10uM” value was determined as 17.7%.

Consider `CCO[C@H]1OC(C(=O)O)=C[C@@H](c2csc3ccccc23)[C@@H]1CCCO`, for which the “hERG current change (%, negative = inhibition) at 10uM” value came out at 13%.

Take `CC1(C)CC(=O)C(C(=O)c2ccccc2)C(=O)C1Cl` (centres unmarked): the “hERG current change (%, negative = inhibition) at 10uM” value amounted to 3.06%. The figure for `COc1cc(NC(=O)CSc2nc3c(c(=O)n(C)c(=O)n3C)n2C)cc(OC)c1` is 2.2%; for `Cc1nc(-n2[nH]c3c(c2=O)CCCC3)[nH]c(=O)c1Cc1ccccc1` it is -0.389%; for `Cc1cc2cc(CNC(=O)Cc3ccc([N+](=O)[O-])cc3)ccc2n1C` it is 9.49%.

For `Cc1cc2c3nonc3ccc2n1-c1ccccc1`, the “hERG current change (%, negative = inhibition) at 10uM” value was 15.9%. The figure for `Cc1cc(C)cc(NC(=O)c2ccc3nc[nH]c3c2)c1` is 14.7%. On to `Cc1ccc(C2c3c(oc4ccc(Cl)cc4c3=O)C(=O)N2CCCN2CCOCC2)o1` (centres unmarked), for which the “hERG current change (%, negative = inhibition) at 10uM” value was -30%. On to `CCC1(C)N=C(N)Nc2nc3cc(C)c(C)cc3n21` (centres unmarked), for which the “hERG current change (%, negative = inhibition) at 10uM” value amounted to 15.3%. The figure for `CCOc1ccccc1-n1c(SCC(=O)N(CC)CC)nnc1-c1ccccn1` is -0.998%. For the molecule `Cc1ccsc1C(=O)C1CCCN(Cc2cccc(-n3cccn3)c2)C1` (centres unmarked), the “hERG current change (%, negative = inhibition) at 10uM” value is recorded as -65.4%.

Regarding `Cc1ccc(S(=O)(=O)N(C)CC(=O)N2CCCCCC2)cc1`, the “hERG current change (%, negative = inhibition) at 10uM” value was 19.5%. The same measure for `COc1ccc(C(=O)Nc2nnc(S(=O)(=O)N3CCOCC3)s2)cc1`: -3.02%.

Consider `O=c1oc2cc(Br)ccc2n1CSC1=NCCS1`, for which the “hERG current change (%, negative = inhibition) at 10uM” value is 5.69%.

Turning to `O=C(c1ccccc1F)N1CCN(S(=O)(=O)c2ccc(S(=O)(=O)N3CCCCC3)cc2)CC1`, the “hERG current change (%, negative = inhibition) at 10uM” value is listed as 4.29%. For the molecule `CCOc1cc(OCC)cc(C(=O)NC(=S)Nc2cccc(C(F)(F)F)c2)c1`, the “hERG current change (%, negative = inhibition) at 10uM” value is reported as 8.42%. The figure for `O=C(Cc1ccsc1)Nc1ccc(S(=O)(=O)C(F)F)cc1` is -8.71%; for `COc1ccc(/C=N/NC(=O)c2c(C)nc3ccc(Br)cn23)cc1OC` it is -0.597%. The figure for `CCn1c(SCC(=O)NC2=NCCS2)nnc1C(C)NC(=O)c1ccc(Cl)cc1` (centres unmarked) is 14.2%; for `Nc1nc(CSC(=S)N2CCN(c3ccccc3)CC2)nc(Nc2ccc(F)cc2)n1` it is 2.14%. With `S=C(NCCc1ccccc1)N1CCN(C(c2ccccc2)c2ccccc2)CC1`, the “hERG current change (%, negative = inhibition) at 10uM” value is recorded as -9.97%. The same measure for `CC(=O)Nc1cc(Cl)ccc1OS(=O)(=O)c1ccc(C)cc1`: 6.28%. The figure for `CCCCNCc1cccn1-c1ccccc1.O=C(O)C(=O)O` is 1.78%. The same measure for `O=C(NCC(c1cccnc1)N1CCN(c2ccc(F)cc2)CC1)c1ccc(F)cc1` (centres unmarked): -47.6%; for `COc1cccc(CC(=O)OCC(=O)NNC(=O)c2ccc([N+](=O)[O-])cc2)c1`: -38.1%.

For the molecule `COc1ccc(NS(=O)(=O)c2cc(C)ccc2NC(=O)c2cc(C)oc2C)cc1`, the “hERG current change (%, negative = inhibition) at 10uM” value is 2.49%. The figure for `CN(C)c1cc(-c2ccc([N+](=O)[O-])cc2)oc(=O)c1Cl` is -18.5%. The same measure for `O=C(Nc1ccc(Nc2ccccc2)cc1)Nc1ccccc1Cl`: 1.14%. The figure for `COc1cccc(CN2CCN(c3ncccn3)CC2)c1OC` is -3.3%; for `Cc1cc(C(=O)CCl)c(C)n1CCc1ccc(Cl)cc1` it is 14.1%; for `O=c1c2c3c(sc2ncn1/N=C/c1ccncc1)CCCC3` it is 12.4%. With `COc1ccc(N(CC(=O)N2CCN(Cc3ccc4c(c3)OCO4)CC2)S(C)(=O)=O)cc1OC`, the “hERG current change (%, negative = inhibition) at 10uM” value was 9.47%. The same measure for `CCC(c1nnnn1Cc1ccccc1)N(Cc1cc2cc(OC)ccc2[nH]c1=O)CC1CCCO1` (centres unmarked): -22.3%; for `CCc1cccc(NC(=O)CCC(=O)O)c1`: 7.15%; for `CSc1cccc(NC(=S)N(Cc2ccccc2)Cc2ccccn2)c1`: -6.65%. The same measure for `Cc1ccccc1C(=O)Nc1ccc(C(=O)N/N=C/c2ccc(O)c(Br)c2)cc1`: -2.99%.
